# In the supplement of paper PMC3334620:
# Whole data set: some 33,000 sequences, median “E-score (-0.5 to 0.5)” near -0.041, cut for the highest 2% near 0.37. The list shows a part of the results.
# Molecular target: T1, Ecm22 (UniProt Q05958)
# T1 sequence: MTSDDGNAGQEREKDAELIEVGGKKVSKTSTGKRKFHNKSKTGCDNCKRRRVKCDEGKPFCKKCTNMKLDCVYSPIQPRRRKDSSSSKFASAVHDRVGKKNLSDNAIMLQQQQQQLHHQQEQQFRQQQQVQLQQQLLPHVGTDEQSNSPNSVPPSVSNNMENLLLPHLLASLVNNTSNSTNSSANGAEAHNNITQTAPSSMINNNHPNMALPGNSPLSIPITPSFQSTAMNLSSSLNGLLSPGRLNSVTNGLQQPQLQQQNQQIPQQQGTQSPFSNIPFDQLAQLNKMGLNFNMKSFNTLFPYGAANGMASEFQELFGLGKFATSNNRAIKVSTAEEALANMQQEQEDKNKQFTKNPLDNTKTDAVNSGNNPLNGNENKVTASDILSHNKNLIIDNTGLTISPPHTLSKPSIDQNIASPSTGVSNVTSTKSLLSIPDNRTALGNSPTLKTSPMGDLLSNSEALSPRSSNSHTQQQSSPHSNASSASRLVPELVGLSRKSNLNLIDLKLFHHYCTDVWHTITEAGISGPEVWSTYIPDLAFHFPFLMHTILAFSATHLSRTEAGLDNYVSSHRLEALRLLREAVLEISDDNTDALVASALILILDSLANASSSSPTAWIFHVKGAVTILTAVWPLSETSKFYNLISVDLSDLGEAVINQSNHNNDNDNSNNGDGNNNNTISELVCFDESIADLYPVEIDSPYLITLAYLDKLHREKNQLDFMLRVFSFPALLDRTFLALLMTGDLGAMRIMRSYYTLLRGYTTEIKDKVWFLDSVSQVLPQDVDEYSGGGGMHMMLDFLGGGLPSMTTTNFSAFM
# Assay: PBM E-score (8-mer binding enrichment) (E-score (-0.5 to 0.5)); higher = stronger / more preferred TF binding; most listed sequences are background and not binding sites
# Settings: protein concentration: 200 nM; construct: GST-full length
# Summary of the method: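 Masliner-normalised scans of fluorescent anti-GST signal were the basis for scoring. That signal came from GST-tagged yeast transcription factors applied at about 100-200 nM to double-stranded universal all-10-mer Agilent arrays on fresh or once-stripped slides. Each ungapped eight-base word, pooled with its reverse complement, received an E-score from the Universal PBM Analysis Suite.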
row,Sequence,PBM E-score
1,CAAATCCC,-0.151
2,CTGTCCGA,0.188
3,CATATCCA,-0.0799
4,AACAGGCT,-0.264
5,CACAAGAC,-0.267
6,ATGGATCA,-0.194
7,AAGCCTGG,-0.279
8,CCTGTGGC,-0.292
9,GCGCTAGA,-0.0147
10,TAACTCTA,-0.0706
11,CAGAACAC,-0.0867
12,AAGGTTCA,-0.0608
13,TGGCTTAA,0.0285
14,TCGCTAGA,0.0863
15,AAGAGTAT,-0.113
16,AGCACAGC,-0.0379
17,AGGCCGAC,-0.106
18,TTGGCCAA,-0.264
19,AGCGAGCA,0.293
20,GTCGCCTA,-0.0445
21,CCACGGAC,-0.22
22,CGAGCCAA,0.127
23,CTCGCTCC,0.405
24,AAATCAAC,-0.088
25,ACACCAGG,-0.301

row,Sequence,PBM E-score
1,AGGTATTC,0.145
2,AATACGCA,0.0707
3,ACGCGGGC,0.0621
4,GTGGGACA,-0.142
5,CAAGTCCC,-0.246
6,CACTGAAA,0.00804
7,GACCGTAC,0.362
8,ATGTCCAC,-0.23
9,ATCCTATA,0.0709
10,CGATAATC,0.0251
11,ACGTCACC,-0.0444
12,AGCGGGTG,-0.186
13,ACCTTCAC,-0.202
14,ATATTATC,0.0725
15,GCAAGGGA,-0.0336
16,GATTACAC,0.0245
17,AGTCGCTA,0.109
18,CATAGCCA,-0.207
19,CTAGGCCC,-0.378
20,GCTGCACC,0.0458
21,CGCATTAC,0.179
22,ATCTCATA,-0.0896
23,AGAGCTTA,-0.112
24,CTACCATC,-0.0677
25,GAGGCCGC,-0.0873

row,Sequence,PBM E-score
1,AACTGTAA,-0.0233
2,CCCGGAAC,0.0399
3,CGGGCTTA,0.00518
4,ACCTCATC,-0.0924
5,CGGACCCG,0.21
6,CGTAACTA,0.152
7,AAAAGAGC,-0.205
8,AGTATATC,0.122
9,ATGTAGGA,-0.213
10,ATCGACAT,0.0673
11,CGGTTTTC,0.259
12,CGTTCGGC,0.147
13,GGCTACCC,-0.232
14,GGATCCGA,0.0541
15,GACATGTC,-0.286
16,ATTATCTA,0.0298
17,AAAAAACA,-0.0926
18,ACCCGGAC,-0.0639
19,GTTATGCA,-0.29
20,GAAGGCGA,-0.0853
21,ATCATACC,0.00527
22,ATATACTA,0.224
23,CCTGCCTA,-0.111
24,AGTTGTTG,-0.204
25,CAGAGCGG,-0.273

row,Sequence,PBM E-score
1,CCCGTGTA,-0.0132
2,AAGAAACG,0.284
3,CCTGAGAA,-0.148
4,TCAGTCGA,0.0318
5,CAAGACCA,-0.403
6,AAGGAGGC,-0.319
7,ATAGAATA,-0.094
8,GTCTGCTA,-0.03
9,CCCCCTCG,0.12
10,ACTTCTGC,-0.0623
11,CATGACGC,-0.00544
12,ATTATGGG,-0.271
13,AAGATATA,0.0923
14,CCTGTGTA,0.00294
15,CTGCAACA,-0.0776
16,ATCTATCA,0.0318
17,AGAGATAC,0.0669
18,CCAAGAGG,-0.362
19,AGAGCAAA,-0.174
20,CAGGAGAG,-0.0937
21,AGGGTGTC,-0.149
22,GTACGTAC,0.349
23,GTCATTCA,-0.121
24,GCAAAACA,-0.232
25,AATACTAT,-0.166

row,Sequence,PBM E-score
1,ACCCGTAA,0.179
2,CGCGGGGA,0.0295
3,CCCTCGAC,-0.0332
4,CGTCGGCC,-0.00808
5,ATGACAAG,-0.0717
6,GAGCCTTA,-0.0855
7,GACTTGGC,-0.155
8,ACGCAATG,-0.0846
9,CGGCCATA,0.091
10,ATAGCACC,-0.111
11,CGCCATAG,-0.058
12,ATGTAAAG,-0.1
13,AGGTCTTA,0.00054
14,CAGAGTCG,0.0671
15,CAGCATAG,-0.174
16,GAGACCTC,-0.0652
17,CACGGTGA,-0.066
18,CTCGGCGC,0.101
19,ACCTCGCA,0.224
20,AACAGCAA,-0.162
21,CGCCAAGC,-0.143
22,ACACACGC,-0.0134
23,AACCGTGA,-0.0809
24,CTCAGAAA,-0.11
25,CTTACCCC,-0.219

row,Sequence,PBM E-score
1,ACTTGTTG,-0.0521
2,AGTACGCA,-0.0459
3,AAGAGACG,0.0921
4,CAGACTAA,-0.0751
5,ATGTACCG,-0.0255
6,AAGGAGTG,-0.131
7,ACCAATAT,0.132
8,CGGCTCTA,0.0789
9,AAGATCGC,0.096
10,CCGGGAAG,-0.27
11,CGATACAG,0.13
12,CCAATTTC,0.107
13,AGAGTATG,-0.0186
14,CAGTAGCC,-0.137
15,AAATCGCT,-0.0583
16,AGGTTAAC,0.0561
17,GAACGAAA,0.43
18,CATTGACG,-0.00128
19,CCGTAGCA,0.165
20,CCAGTGGG,-0.292
21,ATAGAGTC,-0.0166
22,ACCTTTGC,-0.181
23,GGTACTTA,-0.167
24,ACACGTCC,-0.218
25,CCGTCCGA,0.0141

row,Sequence,PBM E-score
1,GACAGACA,0.114
2,AACATGTC,0.0692
3,ATTGCGGC,-0.138
4,AGTTTATC,0.0904
5,CTTTGCCA,-0.0873
6,CTGGAGGC,-0.281
7,ATTATCTG,0.00684
8,ACCGCAAA,0.185
9,AATTCTTA,-0.143
10,CCCGGGAA,-0.0348
11,CCATCGTA,0.428
12,ATTCGGGA,0.0205
13,AATAGAGG,0.0162
14,CCGCCGAG,-0.0513
15,AAGTTTGG,-0.0477
16,ATCTTACG,0.292
17,CGACAACG,0.245
18,AACTGCGG,0.0437
19,ATTAACGA,0.402
20,ATCCGCTC,0.218
21,ATCGCCAT,-0.00876
22,GTCGCGTA,0.309
